Patent US20130171162A1, “COMPOSITIONS AND METHODS FOR THE PREVENTION OF OXIDATIVE DEGRADATION OF PROTEINS” (priority 2008, published 2013)

Test: Anti-CD11a antibody oxidation by AAPH
Assay type: physicochemical

B1: anti-CD11a antibody: anti-CD11a antibody designed to selectively and reversibly block activation, reactivation and trafficking of T-cells that lead to psoriasis (antibody, chains of the INN, looked up)
heavy: EVQLVESGGGLVQPGGSLRLSCAASGYSFTGHWMNWVRQAPGKGLEWVGMIHPSDSETRYNQKFKDRFTISVDKSKNTLYLQMNSLRAEDTAVYYCARGIYFYGTTYFDYWGQGTLVTVSS[… human IgG1 constant region …]
light: DIQMTQSPSSLSASVGDRVTITCRASKTISKYLAWYQQKPGKAPKLLIYSGSTLQSGVPSRFSGSGSGTDFTLTISSLQPEDFATYYCQQHNEYPLTFGQGTKVEIKRTVAAPSVFIFPPSDEQLKSGTASVVCLLNNFYPREAKVQWKVDNALQSGNSQESVTEQDSKDSTYSLSSTLTLSKADYEKHKLYACEVTHQGLSSPVTKSFNRGEC
% Oxidized HC-M35 (t = 0): 0.5% | % Oxidized HC-M50 (t = 0): 1.6% | % Oxidized HC-M256 (t = 0): 5.3% | % Oxidized HC-M362 (t = 0): 0.6% | % Oxidized HC-M35 (t = 8 hr): 2.3% | % Oxidized HC-M50 (t = 8 hr): 8.2% | % Oxidized HC-M256 (t = 8 hr): 14.3% | % Oxidized HC-M362 (t = 8 hr): 1.2% | % Oxidized HC-M35 (t = 24 hr): 4.1% | % Oxidized HC-M50 (t = 24 hr): 20% | % Oxidized HC-M256 (t = 24 hr): 31.6% | % Oxidized HC-M362 (t = 24 hr): 3.2%
